Test results published in patent US20250019376A1, “CHROMANE AMIDINE MONOBACTAM ANTIBIOTICS” (priority 2021, published 2025).
At least one read-out could not be matched to a standard name with certainty.

Tests used:
Conditions in all cases: lowest concentration inhibiting 95% of growth (OD600); with BLi relebactam 4 μg/mL; 22 hours, 35±2° C.
[1] = system: Acinetobacter baumannii expressing TEM-1, AmpC, and Oxa-24/40 (CL6188); assay type: cell-based
Experimental: (§1) The concentrations of compounds required to inhibit the growth of various strains of bacteria were determined in an assay that assessed bacterial growth by measuring optical density at 600 nm (OD600). The bacterial strains tested included the clinical strains Escherichia co/i expressing NDM-1 (CLB30016), Klebsiella pneumoniae expressing KPC-1 (CL6569), Acinetobacter baumannii expressing TEM-1, AmpC, and Oxa-24/40 (CL6188) and Pseudomonas aeruginosa expressing AmpC (CL5701). All compounds were tested in the presence of a f3 lactamase inhibitor (BLi, Relebactam) in 384-well microplates.
(§2) The clinical strains were stored as frozen single use stocks, thawed and diluted into 1.1× cation-adjusted Mueller-Hinton 11 broth to achieve approximately 2×10^5 CFU/mL. Test compounds were dissolved in DMSO and diluted 1:50 in the assay, resulting in a final concentration range of 100 μM to 0.098 μM. On the day of the assay, 1 μL of test compound was added to the plate followed by 4 μL of 50 μg/mL BLi in MOPS buffer and 45 μL of diluted bacteria. Plates were centrifuged at 1000 rpm for 30 seconds, shaken at approximately 800 rpm for 1 minute, and incubated at 35±2° C. for 22 hours. The concentration of BLi used in the assay was 4 μg/mL. At the end of the incubation, absorbance at 600 nm was determined using a spectrophotometer. Inhibition was quantitated by identifying the lowest concentration of test compound that was required to inhibit […] of the growth of the bacteria.

[2] = system: Escherichia co/i expressing NDM-1 (CLB30016); test: Growth inhibitory concentration (OD600), E. coli CLB30016; assay type: cell-based, Escherichia coli
Experimental: as §1, §2

[3] = system: Klebsiella pneumoniae expressing KPC-1 (CL6569); test: Growth inhibitory concentration (OD600), K. pneumoniae CL6569; assay type: cell-based
Experimental: as §1, §2

[4] = system: Pseudomonas aeruginosa expressing AmpC (CL5701); test: Growth inhibitory concentration (OD600), P. aeruginosa CL5701; assay type: cell-based
Experimental: as §1, §2

SMILES	AB_CL6188 MITC95 [1] [µM]	EC_CLB30016 MITC95 [2] [µM]	KP_CL6569 MITC95 [3] [µM]	PA_CL5701 MITC95 [4] [µM]
CC1(C)[C@H](NC(=O)/C(=N\O[C@](C)(C(=O)O)[C@H]2CCc3cc(C(=N)N[C@H]4CCC5(CC4)C[C@@H](N)C5)ccc3O2)c2csc(N)n2)C(=O)N1OS(=O)(=O)O (single isomer, unassigned) [Compound 115]	6.25	6.25	0.7813	3.125
CC1(C)[C@H](NC(=O)/C(=N\O[C@](C)(C(=O)O)[C@H]2CCc3cc(C(=N)N[C@]4(C)CC[C@H](N)CC4)ccc3O2)c2csc(N)n2)C(=O)N1OS(=O)(=O)O [Compound 72, (S)-2-((R)-6-(N-((1s,4S)-4-amino-1-methylcyclohexyl)carbamimidoyl)chroman-2-yl)-2-((((Z)-1-(2-aminothiazol-4-yl)-2-(((S)-2,2-dimethyl-4-oxo-1-(sulfooxy)azetidin-3-yl)amino)-2-oxoethylidene)amino)oxy)propanoic acid]	6.25	12.5	0.7813	3.125
CC1(C)[C@H](NC(=O)/C(=N\O[C@](C)(C(=O)O)[C@H]2CCc3cc(C(=N)N[C@H]4C[C@@](O)(CN)C4)ccc3O2)c2csc(N)n2)C(=O)N1OS(=O)(=O)O [Compound 81, (S)-2-((R)-6-(N-((1r,3R)-3-(aminomethyl)-3-hydroxycyclobutyl)carbamimidoyl)chroman-2-yl)-2-((((Z)-1-(2-aminothiazol-4-yl)-2-(((S)-2,2-dimethyl-4-oxo-1-(sulfooxy)azetidin-3-yl)amino)-2-oxoethylidene)amino)oxy)propanoic acid]	6.25	6.25	0.3906	1.563
C[C@@H]1C[C@H](NC(=N)c2ccc3c(c2)CC[C@H]([C@](C)(O/N=C(\C(=O)N[C@@H]2C(=O)N(OS(=O)(=O)O)C2(C)C)c2csc(N)n2)C(=O)O)O3)CCN1 (single isomer, unassigned) [Compound 55]	3.125	6.25	0.7813	1.563
C[C@H]1C[C@@H](NC(=N)c2ccc3c(c2)CC[C@H]([C@](C)(O/N=C(\C(=O)N[C@@H]2C(=O)N(OS(=O)(=O)O)C2(C)C)c2csc(N)n2)C(=O)O)O3)CCN1 (single isomer, unassigned) [Compound 56]	6.25	6.25	0.7813	1.563
CC1(C)[C@H](NC(=O)/C(=N\O[C@](C)(C(=O)O)[C@H]2CCc3cc(C(=N)N[C@@H]4CN[C@@H](CO)C4)ccc3O2)c2csc(N)n2)C(=O)N1OS(=O)(=O)O [Compound 3, (S)-2-((((Z)-1-(2-aminothiazol-4-yl)-2-(((S)-2,2-dimethyl-4-oxo-1-(sulfooxy)-azetidin-3-yl)amino)-2-oxoethylidene)amino)oxy)-2-((R)-6-(N-((3S,5R)-5-(hydroxymethyl)-pyrrolidin-3-yl)carbamimidoyl)chroman-2-yl)propanoic acid]	6.25	6.25	0.7813	1.563
CC1(C)[C@H](NC(=O)/C(=N\O[C@](C)(C(=O)O)[C@H]2CCc3cc(C(=N)NC4C5CCC4CNC5)ccc3O2)c2csc(N)n2)C(=O)N1OS(=O)(=O)O (stereo partly drawn) [Compound 77, (S)-2-((R)-6-(N-((1R,5S,8r)-3-azabicyclo[3.2.1]octan-8-yl)carbamimidoyl)chroman-2-yl)-2-((((Z)-1-(2-aminothiazol-4-yl)-2-(((S)-2,2-dimethyl-4-oxo-1-(sulfooxy)azetidin-3-yl)amino)-2-oxoethylidene)amino)oxy)propanoic acid]	6.25	6.25	0.7813	1.563
CC1(C)[C@H](NC(=O)/C(=N\O[C@](C)(C(=O)O)[C@H]2CCc3cc(C(=N)NC4(CCN)CCC4)ccc3O2)c2csc(N)n2)C(=O)N1OS(=O)(=O)O [Compound 140, (S)-2-((R)-6-(N-(1-(2-aminoethyl)cyclobutyl)carbamimidoyl)chroman-2-yl)-2-((((Z)-1-(2-aminothiazol-4-yl)-2-(((S)-2,2-dimethyl-4-oxo-1-(sulfooxy)azetidin-3-yl)amino)-2-oxoethylidene)amino)oxy)propanoic acid]	12.5	12.5	1.563	3.125
CC1(C)[C@H](NC(=O)/C(=N\O[C@](C)(C(=O)O)[C@H]2CCc3cc(C(=N)N[C@H]4CCNC4)ccc3O2)c2csc(N)n2)C(=O)N1OS(=O)(=O)O [Compound 1, (S)-2-((((Z)-1-(2-aminothiazol-4-yl)-2-(((S)-2,2-dimethyl-4-oxo-1-(sulfooxy)azetidin-3-yl)amino)-2-oxoethylidene)amino)oxy)-2-((R)-6-(N—((S)-pyrrolidin-3-yl)carbamimidoyl)chroman-2-yl)propanoic acid]	4.688	14.06	0.3906	2.344
CC1(C)[C@H](NC(=O)/C(=N\O[C@](C)(C(=O)O)[C@H]2CCc3cc(C(=N)NC45COC(CN)(C4)C5)ccc3O2)c2csc(N)n2)C(=O)N1OS(=O)(=O)O [Compound 12, (S)-2-((R)-6-(N-(1-(aminomethyl)-2-oxabicyclo[2.1.1]hexan-4-yl)carbamimidoyl)-chroman-2-yl)-2-((((Z)-1-(2-aminothiazol-4-yl)-2-(((S)-2,2-dimethyl-4-oxo-1-(sulfooxy)azetidin-3-yl)amino)-2-oxoethylidene)amino)oxy)propanoic acid]	3.125	6.25	0.3906	1.563
CC1(C)[C@H](NC(=O)/C(=N\O[C@](C)(C(=O)O)[C@H]2CCc3cc(C(=N)NC4CC5(CCNCC5)C4)ccc3O2)c2csc(N)n2)C(=O)N1OS(=O)(=O)O [Compound 21, (S)-2-((R)-6-(N-(7-azaspiro[3.5]nonan-2-yl)carbamimidoyl)chroman-2-yl)-2-((((Z)-1-(2-aminothiazol-4-yl)-2-(((S)-2,2-dimethyl-4-oxo-1-(sulfooxy)azetidin-3-yl)amino)-2-oxoethylidene)amino)oxy)propanoic acid]	3.125	3.125	0.3906	1.563
CC1(C)[C@H](NC(=O)/C(=N\O[C@](C)(C(=O)O)[C@H]2CCc3cc(C(=N)N[C@H]4C[C@@](CN)(CO)C4)ccc3O2)c2csc(N)n2)C(=O)N1OS(=O)(=O)O [Compound 79, (S)-2-((R)-6-(N-((1s,3S)-3-(aminomethyl)-3-(hydroxymethyl)cyclobutyl)carbamimidoyl)chroman-2-yl)-2-((((Z)-1-(2-aminothiazol-4-yl)-2-(((S)-2,2-dimethyl-4-oxo-1-(sulfooxy)azetidin-3-yl)amino)-2-oxoethylidene)amino)oxy)propanoic acid]	4.688	6.25	0.3906	1.563
